# Laboratory results taken from the supplement of paper PMC8728848.
# Some of the results follow.
# B1: AAL (Agrocybe aegerita), Q6WY08 (protein)
# chain: MQGVNIYNISAGTSVDLAAPVTTGDIVTFFSSALNLNAGAGNPNNTTLNLFAENGAYLLHIAFRLQENVIIFNSRQPDGPWLVEQRVSDVANQFAGIDGKAMVTVFDHGDKYQVVINEKTVIQYTKQISGLTLSLSYNATEETSIFSTVVEAVTYTGLALEHHHHHH
# Experiments:
# Assay in all cases: glycan array binding signal (z-score within array); higher = stronger binding
# Details in all cases: glycan notation: IUPAC condensed, linker removed
# [1] = biological target: Fuc(a1-2)Gal
# How it was run: (§1)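 Glycan array binding is given as a within-array Z-score, which can be read as non-binding when negative. The arrays, 3228 of them, came from the Consortium for Functional Glycomics database and were retained only where the protein sequence was available. Z-scores were averaged across arrays of the same protein sequence at different concentrations or buffers and across linkers.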
# [2] = biological target: Fuc(a1-2)Gal(b1-3)GalNAc
# How it was run: as §1
# [3] = biological target: Fuc(a1-2)Gal(b1-3)GalNAc(a1-3)[Fuc(a1-2)]Gal(b1-4)Glc
# How it was run: as §1
# [4] = biological target: Fuc(a1-2)Gal(b1-3)GalNAc(a1-3)[Fuc(a1-2)]Gal(b1-4)GlcNAc
# How it was run: as §1
# [5] = biological target: Fuc(a1-2)Gal(b1-3)GalNAc(b1-3)Gal
# How it was run: as §1
# [6] = biological target: Fuc(a1-2)Gal(b1-3)GalNAc(b1-3)Gal(a1-4)Gal(b1-4)Glc
# How it was run: as §1
# [7] = biological target: Fuc(a1-2)Gal(b1-3)GalNAc(b1-4)[Neu5Ac(a2-3)]Gal(b1-4)Glc
# How it was run: as §1
# [8] = biological target: Fuc(a1-2)Gal(b1-3)GlcNAc
# How it was run: as §1
# [9] = biological target: Fuc(a1-2)Gal(b1-3)GlcNAc(b1-2)Man(a1-3)[Fuc(a1-2)Gal(b1-3)GlcNAc(b1-2)Man(a1-6)]Man(b1-4)GlcNAc(b1-4)GlcNAc
# How it was run: as §1
# [10] = biological target: Fuc(a1-2)Gal(b1-3)GlcNAc(b1-2)Man(a1-3)[Fuc(a1-2)Gal(b1-3)GlcNAc(b1-2)Man(a1-6)]Man(b1-4)GlcNAc(b1-4)[Fuc(a1-6)]GlcNAc
# How it was run: as §1
# [11] = biological target: Fuc(a1-2)Gal(b1-3)GlcNAc(b1-3)Gal(b1-4)Glc
# How it was run: as §1
# [12] = biological target: Fuc(a1-2)Gal(b1-3)GlcNAc(b1-3)GalNAc
# How it was run: as §1
# [13] = biological target: Fuc(a1-2)Gal(b1-3)GlcNAc(b1-3)[Fuc(a1-2)Gal(b1-3)GlcNAc(b1-6)]GalNAc
# How it was run: as §1
# [14] = biological target: Fuc(a1-2)Gal(b1-3)GlcNAc(b1-3)[Fuc(a1-3)[Gal(b1-4)]GlcNAc(b1-6)]Gal(b1-4)Glc
# How it was run: as §1
# [15] = biological target: Fuc(a1-2)Gal(b1-3)GlcNAc(b1-3)[Gal(b1-4)GlcNAc(b1-6)]Gal(b1-4)Glc
# How it was run: as §1
# [16] = biological target: Fuc(a1-2)Gal(b1-3)GlcNAc(b1-3)[Neu5Ac(a2-6)Gal(b1-4)GlcNAc(b1-6)]Gal(b1-4)Glc
# How it was run: as §1
# [17] = biological target: Fuc(a1-2)Gal(b1-3)GlcNAc6S
# How it was run: as §1
# [18] = biological target: Fuc(a1-2)Gal(b1-3)[Fuc(a1-4)]GlcNAc
# How it was run: as §1
# [19] = biological target: Fuc(a1-2)Gal(b1-3)[Fuc(a1-4)]GlcNAc(b1-2)Man(a1-3)[Fuc(a1-2)Gal(b1-3)[Fuc(a1-4)]GlcNAc(b1-2)Man(a1-3)]Man(b1-4)GlcNAc(b1-4)GlcNAc
# How it was run: as §1
# [20] = biological target: Fuc(a1-2)Gal(b1-3)[Fuc(a1-4)]GlcNAc(b1-2)Man(a1-3)[Fuc(a1-2)Gal(b1-3)[Fuc(a1-4)]GlcNAc(b1-2)Man(a1-6)]Man(b1-4)GlcNAc(b1-4)GlcNAc
# How it was run: as §1
# [21] = biological target: Fuc(a1-2)Gal(b1-3)[Fuc(a1-4)]GlcNAc(b1-2)Man(a1-3)[Fuc(a1-2)Gal(b1-3)[Fuc(a1-4)]GlcNAc(b1-2)Man(a1-6)]Man(b1-4)GlcNAc(b1-4)[Fuc(a1-6)]GlcNAc(b1-4)[Fuc(a1-6)]GlcNAc
# How it was run: as §1
# [22] = biological target: Fuc(a1-2)Gal(b1-3)[Fuc(a1-4)]GlcNAc(b1-3)[Fuc(a1-3)[Gal(b1-4)]GlcNAc(b1-6)]Gal(b1-4)Glc
# How it was run: as §1
# [23] = biological target: Fuc(a1-2)Gal(b1-3)[Fuc(a1-4)]GlcNAc(b1-3)[Gal(b1-4)GlcNAc(b1-6)]Gal(b1-4)Glc
# How it was run: as §1
# [24] = biological target: Fuc(a1-2)Gal(b1-4)Fuc(a1-3)]GlcNAc(b1-2)Man(a1-3)[Fuc(a1-2)Gal(b1-4)[Fuc(a1-3)]GlcNAc(b1-2)Man(a1-6)]Man(b1-4)GlcNAc(b1-4)GlcNAc
# How it was run: as §1
# [25] = biological target: Fuc(a1-2)Gal(b1-4)Glc
# How it was run: as §1
# [26] = biological target: Fuc(a1-2)Gal(b1-4)Glc6S
# How it was run: as §1
# [27] = biological target: Fuc(a1-2)Gal(b1-4)GlcNAc
# How it was run: as §1
# [28] = biological target: Fuc(a1-2)Gal(b1-4)GlcNAc(b1-2)Man
# How it was run: as §1
# [29] = biological target: Fuc(a1-2)Gal(b1-4)GlcNAc(b1-2)Man(a1-3)[Fuc(a1-2)Gal(b1-4)GlcNAc(b1-2)Man(a1-6)]Man(b1-4)GlcNAc(b1-4)GlcNAc
# How it was run: as §1
# [30] = biological target: Fuc(a1-2)Gal(b1-4)GlcNAc(b1-2)Man(a1-3)[Fuc(a1-2)Gal(b1-4)GlcNAc(b1-2)Man(a1-6)]Man(b1-4)GlcNAc(b1-4)[Fuc(a1-6)]GlcNAc
# How it was run: as §1
binder,measurement,setting,value
B1,glycan array binding signal (z-score),[1],-0.134
same,glycan array binding signal (z-score),[2],-0.157
same,glycan array binding signal (z-score),[3],-0.137
same,glycan array binding signal (z-score),[4],-0.153
same,glycan array binding signal (z-score),[5],-0.159
same,glycan array binding signal (z-score),[6],-0.154
same,glycan array binding signal (z-score),[7],-0.133
same,glycan array binding signal (z-score),[8],-0.141
same,glycan array binding signal (z-score),[9],-0.105
same,glycan array binding signal (z-score),[10],-0.108
same,glycan array binding signal (z-score),[11],-0.146
same,glycan array binding signal (z-score),[12],-0.152
same,glycan array binding signal (z-score),[13],-0.137
same,glycan array binding signal (z-score),[14],-0.159
same,glycan array binding signal (z-score),[15],-0.134
same,glycan array binding signal (z-score),[16],-0.109
same,glycan array binding signal (z-score),[17],-0.13
same,glycan array binding signal (z-score),[18],-0.145
same,glycan array binding signal (z-score),[19],-0.104
same,glycan array binding signal (z-score),[20],-0.156
same,glycan array binding signal (z-score),[21],-0.113
same,glycan array binding signal (z-score),[22],-0.156
same,glycan array binding signal (z-score),[23],-0.131
same,glycan array binding signal (z-score),[24],-0.11
same,glycan array binding signal (z-score),[25],-0.153
same,glycan array binding signal (z-score),[26],-0.156
same,glycan array binding signal (z-score),[27],-0.146
same,glycan array binding signal (z-score),[28],-0.116
same,glycan array binding signal (z-score),[29],-0.113
same,glycan array binding signal (z-score),[30],-0.075
